# From PubChem BioAssay AID1030 (National Center for Advancing Translational Sciences (NCATS), 2008)
# In all, about 220,000 compounds went through this assay and about 16,000 (7.3%) were called active. This list was built around the results that the source calls inconclusive (neither active nor inactive); the mix of calls is not that of the screen. Calls follow the shape of the dose curve; as a rule, active = well fitted inhibition curve with a large enough effect (not every such curve was filed as active); inconclusive = small, poorly fitted or top-dose-only effect, or another doubt; inactive = no such curve, though single readings can be large or run the other way. No potency is given beside an inconclusive call; the fits are too rough.
# Molecular target: Aldehyde dehydrogenase 1A1 (Homo sapiens) (UniProt P00352)
# Assay: qHTS Assay for Inhibitors of Aldehyde Dehydrogenase 1 (ALDH1A1);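 as to activity, negative = inhibition: plate controls were no enzyme wells and a reference inhibitor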
# Conditions: Purified ALDH1A1, NADH fluorescence, propionaldehyde substrate; series mostly up to 75.3 µM; activity, negative = inhibition: at the top concentration
# Potency is read from the fitted curve at half-maximal effect; tags tell the direction and shape of the fitted curve.
# UniProt P00352, sequence (P00352 whole entry, looked up): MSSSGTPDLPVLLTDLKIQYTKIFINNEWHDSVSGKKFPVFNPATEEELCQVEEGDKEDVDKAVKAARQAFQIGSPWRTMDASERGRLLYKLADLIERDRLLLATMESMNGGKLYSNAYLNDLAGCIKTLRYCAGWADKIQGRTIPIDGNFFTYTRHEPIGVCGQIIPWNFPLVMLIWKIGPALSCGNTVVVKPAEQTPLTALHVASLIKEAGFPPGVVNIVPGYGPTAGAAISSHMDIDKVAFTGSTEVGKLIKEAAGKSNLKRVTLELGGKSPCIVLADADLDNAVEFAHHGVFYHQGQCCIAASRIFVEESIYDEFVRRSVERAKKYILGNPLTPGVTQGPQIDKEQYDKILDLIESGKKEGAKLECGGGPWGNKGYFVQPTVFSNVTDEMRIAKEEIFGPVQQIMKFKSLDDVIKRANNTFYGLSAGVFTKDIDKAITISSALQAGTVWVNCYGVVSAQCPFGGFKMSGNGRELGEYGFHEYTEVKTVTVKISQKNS
SMILES,Potency,"activity, negative = inhibition"
Nc1nnc(-c2cn(-c3ccccc3)nc2-c2ccccc2)o1,"inconclusive [inhibitor, single point]",–
O=C(NCO)c1cccnc1,–,inactive: 13.4%
COC(=O)c1ccc(-c2nc3ccccc3o2)cc1,"inconclusive [inhibitor, single point]",–
CC(=O)Nc1ccc(S(=O)(=O)N(C)CC(=O)OCC(=O)N2CCc3ccccc32)cc1,active: 8.91 µM,–
CCn1c(=O)c2cc(C(=O)N3CCN(C(=O)c4ccco4)CC3)sc2c2ccccc21,"inconclusive [inhibitor, partial curve]",–
Cc1noc(C)c1C(=O)NCc1ccccc1F,–,inactive: 12.1%
COc1ccccc1C1(O)CCN(C(=O)c2cccs2)CC1,–,inactive: 11.2%
Cc1nc(C)c(C(=O)NCc2ccc(Cl)cc2)o1,"inconclusive [inhibitor, single point]",–
O=C(O)c1ccc(NC2CC(=O)N(Cc3ccccc3)C2=O)cc1 (stereo not given),"inconclusive [inhibitor, single point]",–
O=C(O)c1ccccc1-c1ccccc1C(=O)Nc1ccc2c(c1)[nH]c(=O)c1ccccc12,inactive,–
CCN(C(=O)COC(=O)c1ccccc1SCC(=O)NC1CCCCCCC1)C1CCS(=O)(=O)C1 (stereo not given),"inconclusive [inhibitor, partial curve, poor fit]",–
NC(=O)C1CC(=O)N(c2ccc(OCc3ccccc3Cl)cc2)C1 (stereo not given),–,inactive: 5.43%
O=C(N/N=C/c1cn(-c2ccccc2)nc1-c1ccc(F)cc1)c1ccc2c(c1)OCO2,"inconclusive [inhibitor, partial curve]",–
O=C(Nc1cc(Cl)cc(Cl)c1)c1cccc(OC(F)F)c1,–,inactive: -6.8%
CCOC(=O)c1cn(CC(=O)Nc2cccc(Cl)c2C)nn1,–,inactive: 2.05%
O=C(Nc1ccc(Br)cn1)C1CCCN1S(=O)(=O)c1ccccc1 (stereo not given),"inconclusive [inhibitor, single point]",–
O=C(OCCN=C1NS(=O)(=O)c2ccccc21)c1ccco1,–,inactive: -13.2%
Cc1ccc(SCc2nc3ccccc3n2CC(=O)Nc2ccc(Cl)cc2)cc1,–,inactive: 7.29%
COc1cccc2c(=O)cc(C)n(CC(=O)Nc3ccccc3C)c12,"inconclusive [inhibitor, single point]",–
COCCCNC(=O)c1ccccc1NS(C)(=O)=O,"inconclusive [inhibitor, single point]",–
O=C(CSCc1ccc(F)cc1)N1CCOCC1,"inconclusive [inhibitor, single point]",–
Cc1nnc(-c2ccco2)c2cn(-c3cccc(Br)c3)nc12,"inconclusive [inhibitor, partial curve]",–
CCOc1ccc(OCCn2c(=S)[nH]c3c(N)ncnc32)cc1,"inconclusive [inhibitor, single point]",–
Cc1nc(-c2ccc(NS(C)(=O)=O)cc2)cs1,–,inactive: 12.5%
CCOc1ccc(NC(=O)Cn2nc(-c3ccccc3Cl)n(CC)c2=S)cc1,"inconclusive [inhibitor, partial curve]",–

SMILES,Potency,"activity, negative = inhibition"
COc1ccc(OC)c2sc(N3CCc4ccccc4C3)nc12,"inconclusive [inhibitor, single point]",–
CCN1CCS/C1=C\C=C\C1=[N+](CC)CCS1,–,inactive: -8.72%
CCOC(=O)C1(CCCc2ccccc2)CCN(Cc2cnn(C)c2)CC1,"inconclusive [inhibitor, single point]",–
Cc1ccccc1C1CC(=O)Oc2cc(C)c(Br)c(C)c21 (stereo not given),–,inactive: 1.96%
CN(CCc1ccccn1)C(=O)CCC1CCCN(C(=O)CN2CCCCCC2)C1 (stereo not given),"inconclusive [inhibitor, single point]",–
O[C@@H](c1ccccc1)C1CCN(CCc2ccccc2)CC1,–,inactive: -3.47%
CCOC(=O)C1=C(C)OC(N)=C(C#N)C1c1c(C)nn(-c2ccc(C)cc2)c1Cl (stereo not given),–,inactive: 7.9%
CCN(CC)CCOc1ccc(/C(=C(\Cl)c2ccccc2)c2ccccc2)cc1,inactive,–
O=C(c1ccco1)c1cn(CC(=O)N2CCCc3ccccc32)c2ccccc12,"inconclusive [inhibitor, partial curve]",–
CC(=O)NC1C(Oc2ccc3c(C)cc(=O)oc3c2)OC(COC(C)=O)C(OC(C)=O)C1OC(C)=O (stereo not given),"inconclusive [inhibitor, partial curve]",–
CC(=O)c1cc2c(cc1NC(=O)Nc1cccc(Cl)c1)OCCO2,"inconclusive [inhibitor, single point]",–
CC(=O)OCOC(=O)CN(CC(=O)OCOC(C)=O)c1ccccc1OCCOc1ccccc1N(CC(=O)OCOC(C)=O)CC(=O)OCOC(C)=O,–,inactive: -2.94%
Cc1cc(NC(=O)CSc2cn(CCNC(=O)c3ccc(Cl)cc3)c3ccccc23)no1,"inconclusive [inhibitor, full curve]",–
Cc1ccccc1C(=O)N/N=C/c1ccc([N+](=O)[O-])s1,"inconclusive [inhibitor, single point]",–
O=C(O)CC1S/C(=N/N=C/c2ccc(Br)cc2)N(c2ccccc2)C1=O (stereo not given),active: 14.1 µM,–
Cc1ccn2cc(CSc3ccccc3)nc2c1,–,inactive: 4.85%
CSc1nnc(-c2ccc(NC(=O)CCc3ccccc3)cc2)n1C,"inconclusive [inhibitor, single point]",–
CC(=O)c1cccc(NS(=O)(=O)c2cc(OCC(N)=O)c(C)cc2Cl)c1,–,inactive: 8.27%
Nc1cc(N)nc(SCC(=O)N2CCN(C(=O)c3ccco3)CC2)n1,"inconclusive [inhibitor, partial curve]",–
COc1ccc(C(=O)NNc2cc(C)nc(NNC(=O)c3ccc(OC)cc3)n2)cc1,"inconclusive [inhibitor, partial curve]",–
COc1ccccc1N1CCN(CC(=O)Nc2c(C)n(C)n(-c3ccccc3)c2=O)CC1,"inconclusive [inhibitor, single point]",–
CC(=O)Oc1ccc(Oc2ccc(-c3noc(C)n3)cc2)cc1,–,inactive: 0.0573%
COc1ccc(CNC(=O)C2CC(c3ccccc3[N+](=O)[O-])=NO2)cc1 (stereo not given),"inconclusive [inhibitor, single point]",–
O=C(c1ccc(N2CCCCC2)c([N+](=O)[O-])c1)N(Cc1ccccc1)c1ccccn1,"inconclusive [inhibitor, single point]",–
O=C(c1cccc2c1-c1ccccc1/C2=N/O)N1CCCCC1,"inconclusive [inhibitor, single point]",–

SMILES,Potency,"activity, negative = inhibition"
S=C(NCc1ccncc1)NC1CCCC1,–,inactive: 2.69%
Cc1cccc(C(=O)NC(=S)Nc2ccc3[nH]c(=O)[nH]c3c2)c1,"inconclusive [inhibitor, single point]",–
Cc1ccc(N(Cc2ccc(C(=O)Nc3ccccc3C(=O)NCc3ccco3)cc2)S(C)(=O)=O)cc1C,"inconclusive [inhibitor, single point]",–
CCOC(=O)c1c(NC(=O)/C=C/C(=O)O)sc(C)c1-c1ccc(F)cc1,active: 14.1 µM,–
Cc1cc(C(=O)Nc2nc(C)c(C(=O)N(C)C)s2)ccc1[N+](=O)[O-],–,inactive: 10.1%
Cc1cc(C)c(NC(=O)CS(=O)CC(=O)NCC2CCCO2)c(C)c1 (stereo not given),"inconclusive [inhibitor, single point]",–
CC1CCCN(C(=O)c2ccc3c(c2)C(=O)N(CCC2=CCCCC2)C3=O)C1 (stereo not given),active: 0.501 µM,–
COc1ccc(Br)cc1/C=C/C(=O)NC(=S)Nc1ccc(Cl)c(C(=O)O)c1,–,inactive: -15.6%
Cc1nc(SCC(=O)O)c2oc3ccccc3c2n1,–,inactive: 1.8%
CCOC(=O)C(OC(=O)c1sc(=S)n(C)c1C)C(C)=O (stereo not given),"inconclusive [inhibitor, single point]",–
CCNc1ncc2nc(-c3ccc(OC)cc3)c(=O)n(-c3ccc(OC)cc3)c2n1,"inconclusive [inhibitor, full curve]",–
O=C(O)c1n[nH]c2ccccc12,–,inactive: 3.64%
CC1CCN(C(=O)CCCOc2ccc(Cl)cc2)CC1,"inconclusive [inhibitor, single point]",–
COc1ccc(OC)c(C(c2nnnn2C2CCCC2)N2CCN(c3ccccc3F)CC2)c1 (stereo not given),"inconclusive [inhibitor, single point]",–
Brc1ccc2nc(N3CCCC3)sc2c1,"inconclusive [inhibitor, single point]",–
O=S(=O)(NC1=NCCCCC1)c1ccc2ccccc2c1,–,inactive: 0.502%
COc1cc2c(cc1OC)C(C(=O)N1CCN(c3ccccc3)CC1)C(c1cccs1)N(C)C2=O (stereo not given),"inconclusive [inhibitor, single point]",–
O=S(=O)(Nc1nc2ccccc2nc1NCc1ccco1)c1ccccc1,"inconclusive [inhibitor, single point]",–
Cc1cc(NS(=O)(=O)c2ccc(NC(=O)c3ccoc3C)cc2)nc(C)n1,–,inactive: -0.18%
C/C(CC(=O)NC1CCCC1)=N\NC(=O)C1CCCCC1,–,inactive: -8.04%
CSc1nnc(-c2cccc(NC(=S)NN)c2)o1,"inconclusive [inhibitor, single point]",–
Cc1nnc(SCc2cccc([N+](=O)[O-])c2)s1,"inconclusive [inhibitor, single point]",–
CCOC(=O)CSc1nc(N)c(C#N)c(CC(C)C)c1C#N,"inconclusive [inhibitor, partial curve]",–
COc1ccc(CCN=C(N)NS(=O)(=O)c2ccc(F)cc2)cc1,–,inactive: 2.09%
COC(=O)C(C)Oc1ccc2c3c(c(=O)oc2c1)CCCCC3 (stereo not given),"inconclusive [inhibitor, partial curve]",–
